# Measured values published in the supplement of paper PMC8728848.
# Some of the results follow.
# B1: FaeGad (Escherichia coli) (protein)
# chain: WMTGDFNGSVDIGGSITADDYRQKWEWEVGTGLNGFGSVLNDLTNGGTKLTITVTGNKPILLGRTKEAFATPVTSGVDGIPHIAFTDYEGASVELRNPDGETEKGLTYFVLPMKNAEGTKVGSVKVNASYAGALGRGGVTSADGELMSLFAEGSHAIFYGGLPTNVKNSELKGGSAAAARTELFGSLSKNDILGQIQRVNANITSLVNVPGSFNENMAYTDGSVVSVAYALGIANGQTIEATFNQAVTTSTQWSAPLNVAITYY
# What was measured:
# Experiment in all cases: glycan array binding signal (z-score within array); higher = stronger binding
# Conditions in all cases: glycan notation: IUPAC condensed, linker removed
# Fuc(a1-2)Gal = target: Fuc(a1-2)Gal
# Outline: (§1)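 Glycan array data were curated from 3228 arrays in the Consortium for Functional Glycomics database and kept only where the protein sequence was available. Glycan names were converted to IUPAC-condensed notation, and columns mapping to the same glycan were averaged. The binding signal is a within-array Z-score, averaged across arrays of the same protein sequence at different concentrations or buffers and across linkers. Negative Z-scores can be read as non-binding.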
# Fuc(a1-2)Gal(b1-3)GalNAc = target: Fuc(a1-2)Gal(b1-3)GalNAc
# Outline: as §1
# [1] = target: Fuc(a1-2)Gal(b1-3)GalNAc(b1-3)Gal
# Outline: as §1
# [2] = target: Fuc(a1-2)Gal(b1-3)GalNAc(b1-3)Gal(a1-4)Gal(b1-4)Glc
# Outline: as §1
# [3] = target: Fuc(a1-2)Gal(b1-3)GalNAc(b1-4)[Neu5Ac(a2-3)]Gal(b1-4)Glc
# Outline: as §1
# Fuc(a1-2)Gal(b1-3)GlcNAc = target: Fuc(a1-2)Gal(b1-3)GlcNAc
# Outline: as §1
# [4] = target: Fuc(a1-2)Gal(b1-3)GlcNAc(b1-3)Gal(b1-4)Glc
# Outline: as §1
# [5] = target: Fuc(a1-2)Gal(b1-3)[Fuc(a1-4)]GlcNAc
# Outline: as §1
# Fuc(a1-2)Gal(b1-4)Glc = target: Fuc(a1-2)Gal(b1-4)Glc
# Outline: as §1
# Fuc(a1-2)Gal(b1-4)GlcNAc = target: Fuc(a1-2)Gal(b1-4)GlcNAc
# Outline: as §1
# [6] = target: Fuc(a1-2)Gal(b1-4)GlcNAc(b1-3)Gal(b1-4)GlcNAc
# Outline: as §1
# [7] = target: Fuc(a1-2)Gal(b1-4)GlcNAc(b1-3)Gal(b1-4)GlcNAc(b1-3)Gal(b1-4)GlcNAc
# Outline: as §1
# [8] = target: Fuc(a1-2)Gal(b1-4)[Fuc(a1-3)]GlcNAc
# Outline: as §1
# [9] = target: Fuc(a1-2)Gal(b1-4)[Fuc(a1-3)]GlcNAc(b1-3)Gal(b1-4)[Fuc(a1-3)]GlcNAc
# Outline: as §1
# [10] = target: Fuc(a1-2)Gal(b1-4)[Fuc(a1-3)]GlcNAc(b1-3)Gal(b1-4)[Fuc(a1-3)]GlcNAc(b1-3)Gal(b1-4)[Fuc(a1-3)]GlcNAc
# Outline: as §1
# Fuc(a1-2)GlcNAc = target: Fuc(a1-2)GlcNAc
# Outline: as §1
# Fuc(a1-2)[Gal(a1-3)]Gal = target: Fuc(a1-2)[Gal(a1-3)]Gal
# Outline: as §1
# [11] = target: Fuc(a1-2)[Gal(a1-3)]Gal(b1-3)GlcNAc
# Outline: as §1
# [12] = target: Fuc(a1-2)[Gal(a1-3)]Gal(b1-4)Glc
# Outline: as §1
# [13] = target: Fuc(a1-2)[Gal(a1-3)]Gal(b1-4)GlcNAc
# Outline: as §1
# [14] = target: Fuc(a1-2)[Gal(a1-3)]Gal(b1-4)[Fuc(a1-3)]GlcNAc
# Outline: as §1
# [15] = target: Fuc(a1-2)[Gal(a1-4)]Gal(b1-4)GlcNAc
# Outline: as §1
# [16] = target: Fuc(a1-2)[GalNAc(a1-3)]Gal
# Outline: as §1
# [17] = target: Fuc(a1-2)[GalNAc(a1-3)]Gal(b1-3)GlcNAc
# Outline: as §1
# [18] = target: Fuc(a1-2)[GalNAc(a1-3)]Gal(b1-4)Glc
# Outline: as §1
# [19] = target: Fuc(a1-2)[GalNAc(a1-3)]Gal(b1-4)GlcNAc
# Outline: as §1
# [20] = target: Fuc(a1-2)[GalNAc(a1-3)]Gal(b1-4)[Fuc(a1-3)]GlcNAc
# Outline: as §1
# [21] = target: Fuc(a1-2)[GalNAc(a1-4)]Gal(b1-4)GlcNAc
# Outline: as §1
# [22] = target: Fuc(a1-2)[GalNAc(b1-3)]Gal
# Outline: as §1
# Fuc(a1-3)GlcNAc = target: Fuc(a1-3)GlcNAc
# Outline: as §1
# [23] = target: Fuc(a1-3)[Gal(b1-4)]GlcNAc
# Outline: as §1
# [24] = target: Fuc(a1-3)[Gal(b1-4)]GlcNAc(b1-4)Gal(b1-4)[Fuc(a1-3)]GlcNAc
# Outline: as §1
# [25] = target: Fuc(a1-3)[Gal(b1-4)]GlcNAc(b1-4)Gal(b1-4)[Fuc(a1-3)]GlcNAc(b1-4)Gal(b1-4)[Fuc(a1-3)]GlcNAc
# Outline: as §1
# [26] = target: Fuc(a1-3)[Gal3S(b1-4)]GlcNAc
# Outline: as §1
# [27] = target: Fuc(a1-3)[GalNAc(b1-4)]GlcNAc
# Outline: as §1
# Fuc(a1-4)GlcNAc = target: Fuc(a1-4)GlcNAc
# Outline: as §1
# Fuc(b1-3)GlcNAc = target: Fuc(b1-3)GlcNAc
# Outline: as §1
# Gal(a1-2)Gal = target: Gal(a1-2)Gal
# Outline: as §1
# Gal(a1-3)Gal = target: Gal(a1-3)Gal
# Outline: as §1
# Gal(a1-3)Gal(b1-3)GlcNAc = target: Gal(a1-3)Gal(b1-3)GlcNAc
# Outline: as §1
# Gal(a1-3)Gal(b1-4)Glc = target: Gal(a1-3)Gal(b1-4)Glc
# Outline: as §1
# Gal(a1-3)Gal(b1-4)GlcNAc = target: Gal(a1-3)Gal(b1-4)GlcNAc
# Outline: as §1
# [28] = target: Gal(a1-3)Gal(b1-4)[Fuc(a1-3)]GlcNAc
# Outline: as §1
# Gal(a1-3)GalNAc = target: Gal(a1-3)GalNAc
# Outline: as §1
# [29] = target: Gal(a1-3)[Gal(a1-4)]Gal(b1-4)GlcNAc
# Outline: as §1
# Gal(a1-4)Gal(b1-4)Glc = target: Gal(a1-4)Gal(b1-4)Glc
# Outline: as §1
# Gal(a1-4)Gal(b1-4)GlcNAc = target: Gal(a1-4)Gal(b1-4)GlcNAc
# Outline: as §1
# Gal(a1-4)GlcNAc = target: Gal(a1-4)GlcNAc
# Outline: as §1
# Gal(a1-6)Glc = target: Gal(a1-6)Glc
# Outline: as §1
# Gal(b1-2)Gal = target: Gal(b1-2)Gal
# Outline: as §1
# Gal(b1-3)Gal = target: Gal(b1-3)Gal
# Outline: as §1
# Gal(b1-3)GalNAc = target: Gal(b1-3)GalNAc
# Outline: as §1
# [30] = target: Gal(b1-3)GalNAc(b1-3)Gal(a1-4)Gal(b1-4)Glc
# Outline: as §1
# [31] = target: Gal(b1-3)GalNAc(b1-4)Gal(b1-4)Glc
# Outline: as §1
# [32] = target: Gal(b1-3)GalNAc(b1-4)[Neu5Ac(a2-3)]Gal(b1-4)Glc
# Outline: as §1
# Gal(b1-3)GlcNAc = target: Gal(b1-3)GlcNAc
# Outline: as §1
# [33] = target: Gal(b1-3)GlcNAc(b1-3)Gal(b1-4)Glc
# Outline: as §1
# [34] = target: Gal(b1-3)GlcNAc(b1-3)Gal(b1-4)GlcNAc
# Outline: as §1
# [35] = target: Gal(b1-3)[Fuc(a1-4)]GlcNAc
# Outline: as §1
# [36] = target: Gal(b1-3)[Fuc(a1-4)]GlcNAc(b1-3)Gal(b1-4)GlcNAc
# Outline: as §1
binder,measurement,setting,value
B1,glycan array binding signal (z-score),Fuc(a1-2)Gal,0.035
same,glycan array binding signal (z-score),Fuc(a1-2)Gal(b1-3)GalNAc,-0.282
same,glycan array binding signal (z-score),[1],-0.416
same,glycan array binding signal (z-score),[2],-0.404
same,glycan array binding signal (z-score),[3],-0.391
same,glycan array binding signal (z-score),Fuc(a1-2)Gal(b1-3)GlcNAc,-0.325
same,glycan array binding signal (z-score),[4],-0.212
same,glycan array binding signal (z-score),[5],-0.37
same,glycan array binding signal (z-score),Fuc(a1-2)Gal(b1-4)Glc,-0.148
same,glycan array binding signal (z-score),Fuc(a1-2)Gal(b1-4)GlcNAc,-0.353
same,glycan array binding signal (z-score),[6],-0.407
same,glycan array binding signal (z-score),[7],-0.365
same,glycan array binding signal (z-score),[8],-0.348
same,glycan array binding signal (z-score),[9],-0.382
same,glycan array binding signal (z-score),[10],-0.262
same,glycan array binding signal (z-score),Fuc(a1-2)GlcNAc,-0.247
same,glycan array binding signal (z-score),Fuc(a1-2)[Gal(a1-3)]Gal,-0.425
same,glycan array binding signal (z-score),[11],-0.429
same,glycan array binding signal (z-score),[12],-0.361
same,glycan array binding signal (z-score),[13],-0.436
same,glycan array binding signal (z-score),[14],-0.473
same,glycan array binding signal (z-score),[15],-0.36
same,glycan array binding signal (z-score),[16],-0.338
same,glycan array binding signal (z-score),[17],-0.5
same,glycan array binding signal (z-score),[18],-0.482
same,glycan array binding signal (z-score),[19],-0.489
same,glycan array binding signal (z-score),[20],-0.288
same,glycan array binding signal (z-score),[21],-0.268
same,glycan array binding signal (z-score),[22],0.037
same,glycan array binding signal (z-score),Fuc(a1-3)GlcNAc,0.055
same,glycan array binding signal (z-score),[23],-0.218
same,glycan array binding signal (z-score),[24],-0.079
same,glycan array binding signal (z-score),[25],-0.402
same,glycan array binding signal (z-score),[26],-0.164
same,glycan array binding signal (z-score),[27],-0.266
same,glycan array binding signal (z-score),Fuc(a1-4)GlcNAc,-0.295
same,glycan array binding signal (z-score),Fuc(b1-3)GlcNAc,-0.101
same,glycan array binding signal (z-score),Gal(a1-2)Gal,0.214
same,glycan array binding signal (z-score),Gal(a1-3)Gal,0.094
same,glycan array binding signal (z-score),Gal(a1-3)Gal(b1-3)GlcNAc,-0.346
same,glycan array binding signal (z-score),Gal(a1-3)Gal(b1-4)Glc,-0.266
same,glycan array binding signal (z-score),Gal(a1-3)Gal(b1-4)GlcNAc,-0.496
same,glycan array binding signal (z-score),[28],-0.344
same,glycan array binding signal (z-score),Gal(a1-3)GalNAc,-0.072
same,glycan array binding signal (z-score),[29],-0.381
same,glycan array binding signal (z-score),Gal(a1-4)Gal(b1-4)Glc,-0.336
same,glycan array binding signal (z-score),Gal(a1-4)Gal(b1-4)GlcNAc,-0.289
same,glycan array binding signal (z-score),Gal(a1-4)GlcNAc,-0.054
same,glycan array binding signal (z-score),Gal(a1-6)Glc,0.615
same,glycan array binding signal (z-score),Gal(b1-2)Gal,0.234
same,glycan array binding signal (z-score),Gal(b1-3)Gal,0.404
same,glycan array binding signal (z-score),Gal(b1-3)GalNAc,0.383
same,glycan array binding signal (z-score),[30],-0.007
same,glycan array binding signal (z-score),[31],0.156
same,glycan array binding signal (z-score),[32],-0.114
same,glycan array binding signal (z-score),Gal(b1-3)GlcNAc,-0.282
same,glycan array binding signal (z-score),[33],0.448
same,glycan array binding signal (z-score),[34],-0.338
same,glycan array binding signal (z-score),[35],-0.179
same,glycan array binding signal (z-score),[36],-0.391
